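Exposure lasted 48 hours, with cells grown in 96-well plates and compounds tested at five concentrations. GI50 is the concentration that inhibits growth by half. TGI: total growth inhibition.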
The molecules below were run on NCI-H322M lung (assay: DTP human tumour cell line panel, 48 h).
Work on `COC(=O)[C@H]1[C@@H](O)[C@@]2(O)c3c(OC)cc(OC)cc3O[C@@]2(c2ccc(OC)cc2)[C@@H]1c1ccccc1` yielded a GI50 of 18.6 nM and a TGI of 455 nM.
Work on `COc1ccc(/C=N/NC(=O)c2[nH]c3ccc(Br)cc3c2-c2ccccc2)o1` yielded a GI50 of 541 nM and a TGI of 43200 nM.
With `CCOC(=O)c1sc(NCC(=O)Nc2cccc([N+](=O)[O-])c2)c(C(=O)OCC)c1C` the GI50 was 1910 nM and the TGI was 5340 nM.
`C#CCOc1cccc(-c2nc(N)nc(Nc3ccccc3SSc3ccccc3Nc3nc(N)nc(-c4cccc(OCC#C)c4)n3)n2)c1` showed a GI50 of 18600 nM and a TGI greater than 33300 nM.
